Results: PubChem BioAssay (Tox21)
Values joined by “and” are separate entries in the source; they are usually repeats but may differ in a detail not shown here. Equal entries are not always repeated. The inconclusive results got no clear call from the source; some entries with a clear call stand among them for comparison. For some of these results: Where the call is inconclusive, the potency comes from a doubtful curve fit. Where a structure was tested more than once in an assay, its records may differ in their call. Active and inactive are the calls of the source. Unless noted, the call rests on the fitted dose curve; in most records, active means well fitted curve in the direction sought with a large enough effect in the repeat runs; inconclusive means weak or mixed curves; inactive means no such curve, though single readings can be large; an effect the other way counts as inactive or inconclusive.

Assays:
[1] = qHTS assay to identify small molecule agonists of the endoplasmic reticulum stress response signaling pathway - cell viability counter screen (AID 1159517; calls by dose curve; further: nearly all actives have a fitted effect of over 50% in size)
Summary of the method: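 ESRE-bla HeLa cells (1,500/well) were plated overnight at 37 C and exposed to compounds for 5 hr. After the 2 hr beta-lactamase substrate read, CellTiter-Glo went into the same wells, and luminescence was read after 30 min at room temperature.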

[2] = qHTS assay to identify small molecule agonists of the AP-1 signaling pathway (AID 1159526; calls by dose curve; on activation: on the % scale 0 is the no-effect control and ±100 the full control effect); settings: ME-180 (cervical carcinoma) AP-1-bla reporter, beta-lactamase FRET ratio, 5 h; activation: at 76.8 µM (top of the series) unless noted
[3] = qHTS assay to identify small molecule agonists of the RXR signaling pathway - cell viability counter screen (AID 1159529); further: nearly all actives have a fitted effect of over 50% in size
Summary of the method: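 Luminescence from CellTiter-Glo (30 min, RT) measured viability in the same wells as the beta-lactamase reporter readout. Cells: GeneBLAzer RXR-alpha HEK 293T, 2% charcoal-stripped FBS. Compound exposure 16 hr, 37 C.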

[4] = qHTS assay to identify small molecule antagonists of the retinoid acid receptor (RAR) signaling pathway - cell viability counter screen (AID 1159551); further: nearly all actives have a fitted effect of over 35% in size
Summary of the method: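 Cells (C3RL4) are plated, incubated overnight, dosed with compound in DMSO, then given retinol at 1 uM final. After 6 h at 37 C, CellTiter-Glo is added and luminescence read following 30 min at room temperature.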

[5] = qHTS assay to identify small molecule agonists of the retinoic acid receptor (RAR) signaling pathway (AID 1159553); settings: C3RL4 RARE luciferase reporter, agonist, 6 h; activation: at 73.3 µM (top of the series) unless noted
Summary of the method: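 Seed C3RL4 reporter cells at 1,000 per well and incubate overnight at 37 C. Add compounds in DMSO, incubate 6 hr. Add luciferase reagent, wait 30 min at room temperature, read luminescence.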

[6] = target: Luciferin 4-monooxygenase (Photinus pyralis) (UniProt P08659); assay: qHTS assay to identify small molecule inhibitors of firefly luciferase (AID 1224835); further: nearly all actives have a fitted effect of over 25% in size
Summary of the method: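 Inhibition of purified Photinus luciferase is measured by luminescence. Substrate levels (D-luciferin, ATP) sit at their KM values. Each compound is tested in a concentration series.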

[7] = qHTS assay to identify small molecule agonists of the constitutive androstane receptor (CAR) signaling pathway - cell viability counter screen (AID 1224836); further: nearly all actives have a fitted effect of over 45% in size
Summary of the method: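 Viability read-out: CellTiter-Fluor fluorescence after 23 h compound exposure at 37 C/5% CO2 in double-stable HepG2-CYP2B6-hCAR cells, with PK11195 present at 0.75 uM final; compounds tested in 15-point titration.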

[8] = target: Retinoic acid receptor RXR-alpha (Homo sapiens) (UniProt P19793); assay: qHTS assay to identify small molecule agonists of the RXR signaling pathway (AID 1159527; calls by dose curve; further: nearly all actives have a fitted effect of over 35% in size); settings: HEK293T RXRa-UAS-bla, beta-lactamase ratio, 16 h; activation: at 76.8 µM (top of the series) unless noted
Summary of the method: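 Agonist mode; 9-cis retinoic acid positive control. HEK 293T UAS-bla reporter cells, 2% charcoal-stripped FBS, 16 hr compound exposure at 37 C/5% CO2. LiveBLAzer B/G FRET substrate 2 hr RT; ex 405, em 460/530 nm.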

[9] = qHTS assay to identify small molecule antagonists of the constitutive androstane receptor (CAR) signaling pathway - cell viability counter screen (AID 1224837); further: nearly all actives have a fitted effect of over 45% in size
Summary of the method: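 Viability was measured with CellTiter-Fluor in a HepG2 line carrying stably transfected hCAR and a CYP2B6-2.2kb construct. Cells were exposed for 23 hr at 37 C to 15 compound concentrations with 50 nM CITCO as agonist.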

[10] = qHTS assay to identify small molecule agonists of the AP-1 signaling pathway - cell viability counter screen (AID 1159525; calls by dose curve; further: nearly all actives have a fitted effect of over 55% in size)
Summary of the method: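 Intracellular ATP by Cell Titer Glo luminescence (30 min, RT) in the same ME-180 AP-1-bla wells after the 5 h compound exposure at 37 °C. Normalised to tetra n-octyl ammonium bromide and DMSO controls.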

[11] = qHTS assay to identify small molecule antagonists of the estrogen related receptor (ERR) signaling pathway from Tox21 library - cell viability counter screen (AID 1224834); further: nearly all actives have a fitted effect of over 30% in size
Summary of the method: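 ERR cells, 2,000/well; 6 h settle at 37 C/5% CO2; pin-tool compound transfer in DMSO; 17.5 h at 37 C; CellTiter-Fluor, 30 min; fluorescence intensity.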

[12] = qHTS assay to identify small molecule antagonists of the retinoic acid receptor (RAR) signaling pathway (AID 1159552; further: nearly all actives have a fitted effect of over 50% in size)
Summary of the method: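 Luminescence from a RARE luciferase reporter in C3RL4 cells served as read-out. Cells received compounds together with 1 uM final retinol and incubated 6 hr at 37 C before detection reagent was added for 30 min at room temperature.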

[13] = qHTS assay to identify small molecule antagonists of the estrogen related receptor (ERR) signaling pathway - cell viability counter screen (AID 1224818)
Summary of the method: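 ERR cells, 2,000/well; 6 h settle at 37 C/5% CO2; compound pin transfer (DMSO); 17.5 h at 37 C; CellTiter-Fluor, 30 min, fluorescence read.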

[14] = tested on: estrogen-related receptor alpha (ERRalpha) with PGC-1alpha coactivator, human; assay: qHTS assay to identify small molecule antagonists of the estrogen related receptor signaling pathway with the pleiotropic PPARgamma coactivator (PGC) (AID 1224821; calls by dose curve; further: nearly all actives have a fitted effect of over 50% in size)
Summary of the method: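 Luminescence from One-Glo luciferase reagent (30 min, room temperature) measured after 18 h compound treatment at 37 °C. Cells carry the PGC/ERR reporter and were seeded 6 h prior to dosing.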

[15] = qHTS assay to identify small molecule antagonists of the estrogen related receptor signaling pathway with the pleiotropic PPARgamma coactivator (PGC) cell viability counter screen (AID 1224822;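 further: viability read after 17.5 h compound exposure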)
Summary of the method: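 Multiplexed viability counter screen run in PGC/ERR cells treated with compounds for 17.5 h at 37 C; live-cell protease signal measured by CellTiter-Fluor fluorescence.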
Potency means the concentration at half of the fitted maximal effect; tags describe the fitted curve by direction and shape or compound fluorescence and quenching.

Chain of UniProt P19793 (P19793 whole entry, looked up): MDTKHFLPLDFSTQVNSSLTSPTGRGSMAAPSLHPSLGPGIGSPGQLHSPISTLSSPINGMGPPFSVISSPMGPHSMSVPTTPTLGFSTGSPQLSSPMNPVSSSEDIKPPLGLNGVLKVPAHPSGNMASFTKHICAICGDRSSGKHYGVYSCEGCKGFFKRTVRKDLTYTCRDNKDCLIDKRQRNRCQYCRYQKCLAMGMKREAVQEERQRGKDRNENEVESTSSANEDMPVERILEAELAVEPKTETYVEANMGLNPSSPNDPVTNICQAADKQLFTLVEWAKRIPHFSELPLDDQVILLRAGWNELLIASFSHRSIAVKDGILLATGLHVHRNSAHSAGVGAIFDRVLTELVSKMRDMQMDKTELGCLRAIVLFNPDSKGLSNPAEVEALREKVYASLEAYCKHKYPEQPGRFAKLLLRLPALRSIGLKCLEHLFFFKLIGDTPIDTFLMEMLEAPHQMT
Chain of UniProt P08659 (P08659 whole entry, looked up): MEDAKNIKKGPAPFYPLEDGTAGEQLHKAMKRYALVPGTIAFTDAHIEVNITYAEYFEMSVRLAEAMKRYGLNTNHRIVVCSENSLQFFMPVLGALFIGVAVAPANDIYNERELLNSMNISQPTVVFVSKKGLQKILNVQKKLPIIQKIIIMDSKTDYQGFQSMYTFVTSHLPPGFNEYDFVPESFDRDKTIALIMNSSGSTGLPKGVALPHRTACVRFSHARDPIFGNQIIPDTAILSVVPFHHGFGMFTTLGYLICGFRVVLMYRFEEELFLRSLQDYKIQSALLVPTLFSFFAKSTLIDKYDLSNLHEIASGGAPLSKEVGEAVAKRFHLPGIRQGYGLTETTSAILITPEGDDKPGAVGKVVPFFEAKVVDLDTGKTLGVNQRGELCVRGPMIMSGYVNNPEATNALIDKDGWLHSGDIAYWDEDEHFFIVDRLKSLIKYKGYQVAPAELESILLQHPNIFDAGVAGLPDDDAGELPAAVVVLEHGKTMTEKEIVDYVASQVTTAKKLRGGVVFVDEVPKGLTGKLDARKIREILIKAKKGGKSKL

| Compound | Potency [1] | Potency [2] | activation [2] | Potency [3] | Potency [4] | Potency [5] | Potency [6] | Potency [7] | Potency [8] | Potency [9] | Potency [10] | Potency [11] | Potency [12] | Potency [13] | Potency [14] | Potency [15] |
| --- | --- | --- | --- | --- | --- | --- | --- | --- | --- | --- | --- | --- | --- | --- | --- | --- |
| O=C1c2ccccc2C(=O)N1SC(Cl)(Cl)Cl | inconclusive: 3.83 µM [cytotoxic, full curve, poor fit] | inconclusive: 43.6 µM [falling, partial curve] | inconclusive: -9.34% | inconclusive: 21.9 µM [cytotoxic, partial curve, poor fit] | active: 53.7 µM and active: 30.6 µM | inconclusive: 19.1 µM [inhibitor, full curve] and inconclusive: 43.3 µM [inhibitor, partial curve] | active: 15.7 µM and active: 20 µM | active: 26.9 µM and active: 43.3 µM |  |  |  |  |  |  |  |  |
| CNC(C)Cc1ccc2c(c1)OCO2 (centres undefined) | inconclusive: 75.8 µM [cytotoxic, partial curve, poor fit] | inconclusive: 67.5 µM [activator, single point] |  | inconclusive: 26.9 µM [cytotoxic, partial curve, poor fit] |  | inconclusive: 37.6 µM [inhibitor, full curve] |  |  | inconclusive: 47.8 µM [inhibitor, partial curve] | inconclusive: 66.9 µM [cytotoxic, partial curve, poor fit] |  |  |  |  |  |  |
| C[C@]12Cc3cn[nH]c3C[C@@H]1CC[C@@H]1[C@@H]2CC[C@@]2(C)[C@H]1CC[C@]2(C)O | inconclusive: 19 µM [cytotoxic, partial curve, poor fit] | inconclusive: 8.49 µM [falling, partial curve, poor fit] |  | active: 6.01 µM |  | inconclusive: 21.1 µM [inhibitor, partial curve] |  |  | inconclusive: 7.56 µM |  | active: 23.9 µM | inconclusive: 33.5 µM [cytotoxic, single point] |  |  |  |  |
| [Cl-].[Cl-].[Hg+2] | active: 48.8 µM and inconclusive: 54.9 µM [cytotoxic, single point] |  | inconclusive: 31.1% and inconclusive: 36.3% | active: 3.08 µM and active: 3.09 µM | active: 27.2 µM and active: 6.11 µM |  |  | active: 60.8 µM and active: 7.7 µM | inconclusive: 4.35 µM [cytotoxic, partial curve, poor fit] and inconclusive: 3.89 µM [cytotoxic, full curve] | active: 60.8 µM and active: 5.45 µM | active: 4.88 µM and active: 4.36 µM |  |  |  |  |  |
| C=C(C)C(=O)[O][Sn]([CH2]CCC)([CH2]CCC)[CH2]CCC | active: 0.692 µM | inconclusive: 1.1 µM [cytotoxic, full curve] |  | active: 1.1 µM | active: 7.7 µM | inconclusive: 1.22 µM [inhibitor, full curve] |  |  | inconclusive: 6.16 µM [falling, full curve] |  | active: 0.977 µM | active: 1.72 µM | active: 2.73 µM |  |  |  |
| O=c1[nH]c2ccccc2n1C1CCN(CCCC(c2ccc(F)cc2)c2ccc(F)cc2)CC1 | active: 49 µM and active: 23.9 µM | inconclusive: 19.5 µM [cytotoxic, full curve] and inconclusive: 26.8 µM [cytotoxic, single point] |  | active: 21.9 µM and active: 23.9 µM | inconclusive: 68.6 µM [cytotoxic] and inconclusive: 33.5 µM [cytotoxic, partial curve, poor fit] | inconclusive: 68.6 µM [inhibitor, single point] |  | active: 54.5 µM and inconclusive: 29.8 µM [cytotoxic, partial curve, poor fit] |  | inconclusive: 29.8 µM [cytotoxic, partial curve, poor fit] | active: 19.5 µM and inconclusive: 26.8 µM [cytotoxic, single point] |  |  | inconclusive: 29.8 µM [cytotoxic] | active: 16.2 µM | inconclusive: 24.6 µM [cytotoxic] |
